Measured values as given in PubChem BioAssay AID1963576 (National Center for Advancing Translational Sciences (NCATS), 2024).
The campaign covered roughly 46,000 compounds. About 60 (0.1%) were called active. Roughly 3% stayed inconclusive and do not appear here. Calls follow the shape of the dose curve; as a rule, active = well fitted inhibition curve with a large enough effect; inconclusive = small, poorly fitted or top-dose-only effect; inactive = no such curve, though single readings can be large or run the other way. This is one part of the list.

test: Primary qHTS assay for Inhibitors of ovarian cancer metastasis using an organotypic tumor microenvironment (TME) model.; also: nearly all actives have a fitted effect of over 65% in size;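 as to activity change, negative = inhibition: plate controls were DMSO wells for no effect and tomatine positive control wells for full effect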; settings: SKOV3ip1-GFP adhesion/invasion on 3D omental model, fluorescence; series mostly up to 45.8 µM; activity change, negative = inhibition: at the top concentration
In short: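 qHTS, 4-pt dose (0.36-46 umol/L); SKOV3ip1-GFP, 1,200 cells/well, no FBS; primary omental fibroblast/mesothelial co-culture 48 h pre-grown; 2 h RT + 16 h 37 C; PBS wash, 4% PFA; GFP count 488/509 nm.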

outcome, inactive:
COc1ccccc1CNc1nc(-c2ccco2)nn1S(=O)(=O)c1ccc2ccccc2c1
CCC1=Nc2cc(C(=O)NCCCOC)ccc2Sc2ccc(Br)cc21
CCOc1cc(C(=O)OCc2cc(=O)n3nc(CC)sc3n2)cc(OCC)c1OCC
COc1ccc(OCc2nc3ccccc3n2Cc2ccccc2Cl)cc1
CCOc1sc2nc(C)n(CC(=O)Nc3cccc(C)c3)c(=O)c2c1C
Cc1ccc(S(=O)(=O)NC2(C(F)(F)F)C(=O)Nc3c2c(=O)[nH]c(=O)n3-c2ccccc2)cc1 (stereo not given)
NC(=O)c1nc(-c2ccc(F)c(F)c2)nc2c1[nH]c(=O)n2-c1cccc(Cl)c1
CCc1ccccc1NC(=O)c1ccc2c(c1)nnn2C1CCCC1
Cc1ccc(N2CCN(S(=O)(=O)c3ccc(Cl)c4ccccc34)CC2)c(C)c1
O=C1CCCc2cc(S(=O)(=O)NCC3CCC(C(=O)NCc4ccc(F)cc4)CC3)ccc2N1 (stereo not given)
COCCCNC(=O)CCCn1c(=O)c2cccn2c2ccccc21
O=C(Cn1ncc2c(=O)oc3ccccc3c21)N1CCN(c2ccc(Cl)cc2)CC1
CC(C)(C)c1ccc(C(=O)N(Cc2ccc(F)cc2)Cc2ccco2)cc1
COc1ccc2cc(CNc3ccc(C)cc3)c(=O)n(CC(=O)Nc3cccc(Cl)c3C)c2c1
CCn1cc2nc(SCc3ccc(F)cc3)n(CCc3ccccc3)c(=O)c2n1
COc1ccc(-c2nc(CSc3nnc(C)n4c3cc3oc(C)cc34)c(C)o2)cc1OC
COc1ccc(CCNC(=O)C2CCCN(S(=O)(=O)c3ccc4c(c3)oc(=O)n4C)C2)cc1OC (stereo not given)
COc1ccc(NC(=O)C2=C(C)Nc3ncnn3C2c2ccc[nH]2)cc1 (stereo not given)
Cc1cc(C)c(Cn2c(=O)n(CCCCC(=O)NCc3ccccc3Cl)c(=O)c3ccccc32)c(C)c1
CCC(=O)Nc1ccccc1-c1nc2ccccc2n(C(CC)C(=O)Nc2cccc(Cl)c2)c1=O (stereo not given)
CC(=O)Nc1ccc(NC(=O)C2CCN(c3cnccn3)CC2)cc1
CCc1ccccc1N(C)S(=O)(=O)c1ccc2c(c1)C(C)(C)C(=O)N2C
COc1cccc(CSc2nc3n(n2)C(c2ccc(C(=O)O)cc2)C(C(=O)Nc2ccccc2)=C(C)N3)c1 (stereo not given)
CCOc1ccccc1NC(=O)CSc1nc2c(oc3ccccc32)c(=O)n1-c1ccc(F)cc1
CC(C)(C)C(=O)CSc1nc2ccsc2c(=O)n1Cc1ccccc1Cl
CSc1ccccc1-c1nnc(NC(=O)c2ccc3c(c2)OCCO3)o1
Cc1ccc2nc(SCc3nc(-c4ccc(Cl)cc4)no3)[nH]c2c1
CCOC(=O)c1cc(-c2ccccc2)n(CCC(=O)Nc2ccccc2CC)c1C
Cc1cc(C)cc(N2C(=O)CSC23C(=O)N(Cc2c(F)cccc2Cl)c2ccccc23)c1 (stereo not given)

Activity change, negative = inhibition, inactive:
Cc1cccc(-c2noc(-c3ccccc3OCC(=O)Nc3ccc([N+](=O)[O-])cc3)n2)c1 -0.707%
CC(C)CC(=O)Nc1cccc(-c2nc3ccccc3[nH]2)c1 2.72%
CCc1cnc2c(c1SCC(=O)c1ccccc1)c(=O)n(C)c(=O)n2C 9.27%
CCN1CCc2nc3sc(C(=O)Nc4cccc(Cl)c4C)c(N)c3cc2C1 -5.53%
CC1CCC(C(=O)NC(C(=O)OCC(=O)c2ccccc2)C(C)C)CC1 (stereo not given) -0.707%
CCC(=O)N1CCc2cc(Br)cc(S(=O)(=O)N3CCCC(C(=O)Nc4ccc(C(C)C)cc4)C3)c21 (stereo not given) 52.3%
COC(=O)c1ccccc1NC(=O)c1c(C)oc2ncn(C)c(=O)c12 -7.64%
CCCCC(=O)N(c1ccc2oc(C)c(C(C)=O)c2c1)S(=O)(=O)c1ccc(F)cc1C -8.14%
COc1ccc(-c2ccc(NS(=O)(=O)c3ccc(OC)c(OC)c3)cc2)nn1 -6.76%
Cc1c(C(=O)NCc2cccc(Cl)c2)sc2nc3n(c(=O)c12)CCC3 -9.86%
Cc1cn2c(=O)cc(COc3ccccc3NC(=O)c3ccco3)nc2s1 13.2%
Cc1ccc(CNS(=O)(=O)c2cc3[nH]c(=O)c(=O)[nH]c3cc2C)cc1 4.02%
CSc1nc2sc3c(c2c(=O)n1Cc1ccccc1)CCC(C(C)(C)C)C3 (stereo not given) 2.73%
Cc1ccc(C(=O)Nc2ccc3nc(SCC(=O)N4CCCc5ccccc54)sc3c2)cc1 -35.1%
O=C(COC(=O)c1cc(-c2ccccc2)nc2ccccc12)c1ccc(Br)cc1 -3.53%
CCN1CCN(CCCNC(=O)c2cnn(-c3ccc(C)cc3C)c2C2CCN(C(=O)OC(C)(C)C)CC2)CC1 -14.8%
O=S(=O)(c1ccc(Br)cc1)c1nnn2c1nc(N1CCOCC1)c1sccc12 -2.85%
CCOc1ccccc1NC(=O)CN1C(=O)COc2ccc(S(=O)(=O)NC3CCCC3)cc21 -6.51%
CCCNC(=O)c1ccc(Cn2c(=O)c3cccn3c3cccnc32)cc1 2.92%
Cc1ccc(CNC(=O)Cc2ccc(NC(=O)N3CCSc4ncccc43)cc2)cc1 -9.75%
CC(C)(C)NC(=O)N1CCC(C(=O)O)CC1 -4.26%
O=C(Nc1cccc(C(F)(F)F)c1)c1cccc(C(=O)Nc2cccc(C(F)(F)F)c2)c1 -2.67%
CCOC(=O)c1c(C)c(-c2ccccc2)n(CC(=O)Nc2cc(C)cc(C)c2)c1C -9.22%
COc1ccccc1CNC(=O)CCC1N=C2c3ccccc3N=C(SCc3ccc(Cl)cc3)N2C1=O (stereo not given) 0.375%
COc1cccc(CSc2nc(-c3ccccc3F)nc3c2Cc2c(CO)cnc(C)c2O3)c1 5.24%
COc1ccc(-n2nc3c(N4CCC(C(=O)NCCc5ccccc5)CC4)nnc(C)c3c2C)cc1 5.47%
O=C(CSc1nnc(-c2cccc(F)c2)c(-c2cccc(F)c2)n1)NC1CCCCC1 4.21%
CCOC(=O)c1c(NC(=O)COc2ccccc2Br)sc2c1CCCCC2 3.1%
Cc1ccc(-c2nnc(Nc3ccccc3)c3ccccc23)cc1S(=O)(=O)N1CCN(C)CC1 1.04%
COc1cc(Cl)c(C)cc1NC(=O)c1cnn(-c2ccc(F)cc2F)c1C1CCN(C(=O)OC(C)(C)C)CC1 38.5%
CCN(CC)S(=O)(=O)c1nnc(NC(=O)c2ccc(Br)cc2)s1 8.16%
O=C(c1cccs1)N(Cc1cccnc1)c1nc2c(F)cc(F)cc2s1 0.234%
O=S(=O)(c1ccccc1)c1nc(-c2cccc(Cl)c2)oc1N1CCOCC1 -6.15%
Cc1cc(NC(=O)Cn2c(=O)oc3cc(S(=O)(=O)N4CCCC4)ccc32)ccc1Br -3.35%
CCOC(=O)c1c(C)sc(-c2c(-c3cccc(Cl)c3)[nH]c3c2c(=O)n(C)c(=O)n3C)c1O -4.46%
CCOc1ccc(-c2cc3nc(C4CCN(C(=O)OC(C)(C)C)CC4)c(C(=O)Nc4c(C)cccc4C)cn3n2)cc1 -3.65%
Cc1ccc(CNC(=O)CCc2cn(Cc3ccc(C)cc3)c3ccccc23)cc1 -0.939%
COc1ccc(CCN2C(=O)c3[nH]nc(-c4ccccc4O)c3C2c2ccccc2)cc1 (stereo not given) 4.99%
C=Cc1ccc(Cn2ccn(-c3ccc(F)c(F)c3)c(=O)c2=O)cc1 -7.88%
COc1cccc(NC(=O)c2csnn2)c1 -0.309%
CC(=O)N1CCc2cc(CNC(=O)Nc3ccc(Br)c(C)c3)ccc21 5.73%
Fc1ccc2c(c1)-c1c(cnc3cc(-c4ccc(Cl)cc4)nn13)CO2 1.99%
Cc1c(C(=O)N(C)C)sc2c1c(=O)n(-c1ccc(F)cc1)c(=O)n2Cc1ccccc1C#N 2.63%
CC(COc1ccccc1)N(CCCl)Cc1ccccc1 (stereo not given) -8%
O=C(NCc1ccccc1F)C(=O)NCC(c1ccc2c(c1)OCO2)N1CCOCC1 (stereo not given) -8.06%
CCCCCc1ccc(-c2ccc(Br)cc2)nc1 -3.09%
Cc1ccc(-n2nc(C(=O)N3CCN(c4ccccc4F)CC3)c(=O)n(C)c2=O)cc1 4.57%
CC(=O)N1CCc2c(sc3c2c(=O)n(-c2ccccc2)c(=O)n3CC(=O)Nc2cc(C)cc(C)c2)C1 -6.47%
CCOc1ccc(CCNC(=O)c2c(C)oc3ncn(CC(C)C)c(=O)c23)cc1OCC 6.26%
CCOc1ccc(CNC(=O)CCc2c(C)nn(-c3ccc(N4CCCCC4)nn3)c2C)cc1 0.811%
Cc1cc(Br)ccc1NC(=O)CSc1c2c(nc3ccccc13)CCC2 1.19%
CCc1ccc(NC(=O)CSc2nc(C)c(C(=O)Nc3ccccc3)c(-c3ccc(OC)c(OC)c3)c2C#N)cc1 -0.928%
O=C(OCc1cc(=O)n2nc(-c3cccs3)sc2n1)c1ccccc1Cl -4.78%
COc1ccc(NC(=O)c2cc3cc(C)ccc3[nH]2)cc1 1.15%
COc1ccccc1N1CCN(c2ccc(=O)n(CC(=O)NCc3ccc(F)cc3)n2)CC1 6.36%
CSc1ccc(CCNC(=O)c2cc(C)nc3c2c(C)nn3-c2cccc(F)c2)cc1 1.23%
Cc1c(C(=O)N2CCCCCC2)c(S(=O)(=O)NCc2ccccc2)c(C)n1C 7.1%
CC(=O)Nc1ccccc1-c1nc2ccccc2n(CC(=O)Nc2cccc(C)c2C)c1=O 4.28%
O=C(Nc1ccc(F)c(Cl)c1)Nc1c[nH]c(=O)[nH]c1=O -4.14%
O=C(CSc1nc(=O)n(CCN2CCOCC2)c2c1CCC2)Nc1ccc(Cl)c(Cl)c1 -8.15%
O=C(Nc1ccc(OC(F)(F)F)cc1)c1sccc1NCc1ccnc2ccccc12 1.43%
Cc1cc2c(cc1S(=O)(=O)Nc1cccc(Cl)c1C)n(C)c(=O)c(=O)n2C 3.05%
CCOc1ccc(CC(=O)Nc2c(C(=O)c3ccccc3)oc3ccc(Cl)cc23)cc1OCC 27.2%
COc1ccc(N2CCN(S(=O)(=O)c3ccc(-c4coc(C)n4)cc3)CC2)cc1 -3.58%
CC(=O)N1c2ccc(S(=O)(=O)Nc3ccc(C)c(Cl)c3)cc2CC1C (stereo not given) -0.794%
Cc1cccc(CSc2nc3c([nH]c4ccccc43)c(=O)n2C)c1 4.98%
